# Measurements published in the supplement of paper PMC8728848.
# Some of the results follow.
# B1: Gal 2 (Canis lupus) (protein)
# chain: MSGKFEVMNMDMKLGGTLKIKGKIAGDADGFVINLGQGSDKLNLHFNPRFHESVIVCNSRNWGQEQRDKHMCFSPGSEVKFTVTFENDGFKVKLPDGHQLTFPNRLGHSHLSYLGVQGGLKVSSFKIE
# Key:
# Assay in all cases: glycan array binding signal (z-score within array); higher = stronger binding
# Conditions in all cases: glycan notation: IUPAC condensed, linker removed
# [1] = target: Fuc(a1-3)[Gal(b1-4)]GlcNAc6S
# Summary of the method: (§1)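 Columns mapping to the same glycan were averaged after glycan names were converted to IUPAC-condensed notation. The data come from 3228 arrays in the Consortium for Functional Glycomics database, limited to those with an available protein sequence. Binding is reported as a within-array Z-score averaged across arrays of one protein sequence and across linkers.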
# [2] = target: Fuc(a1-3)[Gal3S(b1-4)]GlcNAc
# Summary of the method: as §1
# [3] = target: Fuc(a1-3)[Gal3S(b1-4)]GlcNAc6S
# Summary of the method: as §1
# [4] = target: Fuc(a1-3)[GalNAc(b1-4)]GlcNAc
# Summary of the method: as §1
# Fuc(a1-4)GlcNAc = target: Fuc(a1-4)GlcNAc
# Summary of the method: as §1
# Fuc(b1-3)GlcNAc = target: Fuc(b1-3)GlcNAc
# Summary of the method: as §1
# Gal(a1-2)Gal = target: Gal(a1-2)Gal
# Summary of the method: as §1
# Gal(a1-3)Gal = target: Gal(a1-3)Gal
# Summary of the method: as §1
# Gal(a1-3)Gal(b1-3)GlcNAc = target: Gal(a1-3)Gal(b1-3)GlcNAc
# Summary of the method: as §1
# [5] = target: Gal(a1-3)Gal(b1-3)GlcNAc(b1-2)Man(a1-3)[Gal(a1-3)Gal(b1-3)GlcNAc(b1-2)Man(a1-6)]Man(b1-4)GlcNAc(b1-4)GlcNAc
# Summary of the method: as §1
# [6] = target: Gal(a1-3)Gal(b1-3)GlcNAc(b1-3)GalNAc
# Summary of the method: as §1
# [7] = target: Gal(a1-3)Gal(b1-3)[Fuc(a1-4)]GlcNAc(b1-2)Man(a1-3)[Gal(a1-3)Gal(b1-3)[Fuc(a1-4)]GlcNAc(b1-2)Man(a1-6)]Man(b1-4)GlcNAc(b1-4)GlcNAc
# Summary of the method: as §1
# Gal(a1-3)Gal(b1-4)Glc = target: Gal(a1-3)Gal(b1-4)Glc
# Summary of the method: as §1
# Gal(a1-3)Gal(b1-4)GlcNAc = target: Gal(a1-3)Gal(b1-4)GlcNAc
# Summary of the method: as §1
# [8] = target: Gal(a1-3)Gal(b1-4)GlcNAc(b1-3)GalNAc
# Summary of the method: as §1
# [9] = target: Gal(a1-3)Gal(b1-4)[Fuc(a1-3)]GlcNAc
# Summary of the method: as §1
# [10] = target: Gal(a1-3)Gal(b1-4)[Fuc(a1-3)]GlcNAc(b1-2)Man(a1-3)[Gal(a1-3)Gal(b1-4)[Fuc(a1-3)]GlcNAc(b1-2)Man(a1-6)]Man(b1-4)GlcNAc(b1-4)GlcNAc
# Summary of the method: as §1
# Gal(a1-3)GalNAc = target: Gal(a1-3)GalNAc
# Summary of the method: as §1
# [11] = target: Gal(a1-3)[Gal(a1-4)]Gal(b1-4)GlcNAc
# Summary of the method: as §1
# [12] = target: Gal(a1-4)Gal(b1-3)GlcNAc(b1-2)Man(a1-3)[Gal(a1-4)Gal(b1-3)GlcNAc(b1-2)Man(a1-6)]Man(b1-4)GlcNAc(b1-4)GlcNAc
# Summary of the method: as §1
# Gal(a1-4)Gal(b1-4)Glc = target: Gal(a1-4)Gal(b1-4)Glc
# Summary of the method: as §1
# Gal(a1-4)Gal(b1-4)GlcNAc = target: Gal(a1-4)Gal(b1-4)GlcNAc
# Summary of the method: as §1
# [13] = target: Gal(a1-4)Gal(b1-4)GlcNAc(b1-2)Man(a1-3)[Gal(a1-4)Gal(b1-4)GlcNAc(b1-2)Man(a1-6)]Man(b1-4)GlcNAc(b1-4)GlcNAc
# Summary of the method: as §1
# [14] = target: Gal(a1-4)Gal(b1-4)GlcNAc(b1-3)Gal(b1-4)Glc
# Summary of the method: as §1
# Gal(a1-4)GlcNAc = target: Gal(a1-4)GlcNAc
# Summary of the method: as §1
# Gal(a1-6)Glc = target: Gal(a1-6)Glc
# Summary of the method: as §1
# Gal(b1-2)Gal = target: Gal(b1-2)Gal
# Summary of the method: as §1
# Gal(b1-3)Gal = target: Gal(b1-3)Gal
# Summary of the method: as §1
# Gal(b1-3)Gal(b1-4)GlcNAc = target: Gal(b1-3)Gal(b1-4)GlcNAc
# Summary of the method: as §1
# [15] = target: Gal(b1-3)Gal(b1-4)GlcNAc(b1-2)Man(a1-3)[Gal(b1-3)Gal(b1-4)GlcNAc(b1-2)Man(a1-6)]Man(b1-4)GlcNAc(b1-4)GlcNAc
# Summary of the method: as §1
# Gal(b1-3)GalNAc = target: Gal(b1-3)GalNAc
# Summary of the method: as §1
# [16] = target: Gal(b1-3)GalNAc(a1-3)[Fuc(a1-2)]Gal(b1-4)Glc
# Summary of the method: as §1
# [17] = target: Gal(b1-3)GalNAc(a1-3)[Fuc(a1-2)]Gal(b1-4)GlcNAc
# Summary of the method: as §1
# [18] = target: Gal(b1-3)GalNAc(b1-3)Gal(a1-4)Gal(b1-4)Glc
# Summary of the method: as §1
# [19] = target: Gal(b1-3)GalNAc(b1-4)Gal(b1-4)Glc
# Summary of the method: as §1
# [20] = target: Gal(b1-3)GalNAc(b1-4)[Neu5Ac(a2-3)]Gal(b1-4)Glc
# Summary of the method: as §1
# Gal(b1-3)GlcNAc = target: Gal(b1-3)GlcNAc
# Summary of the method: as §1
binder,measurement,setting,value
B1,glycan array binding signal (z-score),[1],0.199
same,glycan array binding signal (z-score),[2],-0.066
same,glycan array binding signal (z-score),[3],-0.271
same,glycan array binding signal (z-score),[4],-0.173
same,glycan array binding signal (z-score),Fuc(a1-4)GlcNAc,-0.012
same,glycan array binding signal (z-score),Fuc(b1-3)GlcNAc,-0.522
same,glycan array binding signal (z-score),Gal(a1-2)Gal,-0.059
same,glycan array binding signal (z-score),Gal(a1-3)Gal,-0.286
same,glycan array binding signal (z-score),Gal(a1-3)Gal(b1-3)GlcNAc,-0.168
same,glycan array binding signal (z-score),[5],0.082
same,glycan array binding signal (z-score),[6],0.146
same,glycan array binding signal (z-score),[7],0.336
same,glycan array binding signal (z-score),Gal(a1-3)Gal(b1-4)Glc,-0.137
same,glycan array binding signal (z-score),Gal(a1-3)Gal(b1-4)GlcNAc,-0.21
same,glycan array binding signal (z-score),[8],-0.494
same,glycan array binding signal (z-score),[9],-0.137
same,glycan array binding signal (z-score),[10],0.339
same,glycan array binding signal (z-score),Gal(a1-3)GalNAc,0.043
same,glycan array binding signal (z-score),[11],-0.158
same,glycan array binding signal (z-score),[12],0.14
same,glycan array binding signal (z-score),Gal(a1-4)Gal(b1-4)Glc,-0.074
same,glycan array binding signal (z-score),Gal(a1-4)Gal(b1-4)GlcNAc,-0.051
same,glycan array binding signal (z-score),[13],-0.3
same,glycan array binding signal (z-score),[14],-0.076
same,glycan array binding signal (z-score),Gal(a1-4)GlcNAc,0.138
same,glycan array binding signal (z-score),Gal(a1-6)Glc,0.049
same,glycan array binding signal (z-score),Gal(b1-2)Gal,0.196
same,glycan array binding signal (z-score),Gal(b1-3)Gal,0.241
same,glycan array binding signal (z-score),Gal(b1-3)Gal(b1-4)GlcNAc,-0.367
same,glycan array binding signal (z-score),[15],-0.077
same,glycan array binding signal (z-score),Gal(b1-3)GalNAc,0.058
same,glycan array binding signal (z-score),[16],0.194
same,glycan array binding signal (z-score),[17],0.127
same,glycan array binding signal (z-score),[18],-0.368
same,glycan array binding signal (z-score),[19],0.024
same,glycan array binding signal (z-score),[20],0.025
same,glycan array binding signal (z-score),Gal(b1-3)GlcNAc,-0.152
